Cytotoxicity call data for 40 compounds are collected here from the antibiotic and cytotoxicity screens of Wong et al. (2023).

The list shows a part of the results.

The test deals with HSkMC (human skeletal muscle cells). Kind of test: cytotoxicity call (relative viability < 0.9). The conditions noted are these: 10 µM.
For `O=C(C[C@@H]1CC[C@@H]2[C@H](COC[C@H](O)CN2S(=O)(=O)c2ccc(F)cc2)O1)NCc1ccc(Cl)c(Cl)c1`, the cytotoxicity call was “inactive”.

Regarding `C[C@H]1CCCCO[C@H](CN(C)Cc2ccc(C(F)(F)F)cc2)[C@@H](C)CN([C@@H](C)CO)C(=O)c2cc(NS(=O)(=O)c3ccc(Cl)cc3)ccc2O1`, the cytotoxicity call is “active”. Turning to `CO[C@@H]1CN(C)C(=O)c2ccc(NS(=O)(=O)c3cn(C)cn3)cc2OC[C@H](C)N(CC2CC2)C[C@@H]1C`, the cytotoxicity call was “inactive”. In the case of `Cc1noc(C)c1S(=O)(=O)N(C)C[C@H]1Oc2ccc(NC(=O)C3CCCCC3)cc2CC(=O)N([C@@H](C)CO)C[C@H]1C`, the cytotoxicity call is “inactive”.

On to `CC[C@@H](C)CCCCC(=O)N[C@@H](CCN)C(=O)N[C@H](C(=O)N[C@@H](CCN)C(=O)N[C@H]1CCNC(=O)[C@H]([C@@H](C)O)NC(=O)[C@H](CCN)NC(=O)[C@H](CCN)NC(=O)[C@H](CC(C)C)NC(=O)[C@@H](Cc2ccccc2)NC(=O)[C@@H](CCN)NC1=O)[C@@H](C)O`, for which the cytotoxicity call was “inactive”. The same measure for `C[C@H]1CN([C@@H](C)CO)C(=O)Cc2cc(NC(=O)Nc3ccc4c(c3)OCO4)ccc2O[C@H]1CN(C)C(=O)Nc1ccc(C(F)(F)F)cc1`: “inactive”; for `C[C@@H]1CN([C@H](C)CO)S(=O)(=O)c2ccc(-c3ccncc3)cc2O[C@@H]1CN(C)C(=O)c1cccc(F)c1`: “inactive”; for `Cc1cccc(CN(C)C[C@@H]2Oc3ncc(-c4cc5ccccc5o4)cc3C(=O)N([C@H](C)CO)C[C@@H]2C)c1`: “inactive”.

On to `O=C(C[C@@H]1C[C@@H]2c3cc(NC(=O)Nc4ccc(C(F)(F)F)cc4)ccc3O[C@@H]2[C@@H](CO)O1)NCCc1ccccc1`, for which the cytotoxicity call is “inactive”. As for `CCC(=O)N(C)C[C@H]1Oc2ncc(C#C[C@H](C)O)cc2C(=O)N([C@H](C)CO)C[C@@H]1C`, the entry is “inactive”. The same measure for `C[C@H](CO)N1C[C@H](C)[C@@H](CN(C)S(=O)(=O)c2cn(C)cn2)Oc2ccc(NC(=O)Nc3ccccc3)cc2C1=O`: “inactive”; for `C[C@@H]1CN([C@H](C)CO)S(=O)(=O)c2ccc(C#CCC3CCCC3)cc2O[C@@H]1CN(C)C(=O)CN(C)C`: “inactive”; for `COc1ccc(NC(=O)N(C)C[C@H]2Oc3ccc(NC(=O)Cn4cnnn4)cc3CC(=O)N([C@H](C)CO)C[C@@H]2C)cc1`: “inactive”. For the compound `Cc1ccc(S(=O)(=O)Nc2ccc3c(c2)C(=O)N([C@@H](C)CO)C[C@@H](C)[C@H](CN(C)CC2CCCCC2)OCCCC[C@@H](C)O3)cc1`, the cytotoxicity call was “inactive”.

`COc1ccc(S(=O)(=O)N2C[C@@H](O)COC[C@H]3O[C@H](CC(=O)NCCCN4CCOCC4)CC[C@@H]32)cc1`: the cytotoxicity call is “inactive”. Consider `O=C(C[C@H]1C[C@@H]2c3cc(NS(=O)(=O)c4ccc(F)cc4)ccc3O[C@@H]2[C@H](CO)O1)NCc1cccc(F)c1`, for which the cytotoxicity call was “inactive”.

`C[C@H]1CN([C@@H](C)CO)C(=O)c2cc(-c3ccc(C#N)cc3)cnc2O[C@@H]1CN(C)C(=O)Nc1ccc(C(F)(F)F)cc1`: the cytotoxicity call is “inactive”. `C[C@@H]1CN([C@@H](C)CO)C(=O)c2cc(NS(=O)(=O)c3ccccc3)ccc2O[C@@H](C)CCCCO[C@@H]1CN(C)C(=O)c1ccccc1`: the cytotoxicity call is “inactive”.

For `C[C@@H]1CN([C@H](C)CO)C(=O)c2cc(NS(=O)(=O)c3cn(C)cn3)ccc2O[C@H]1CN(C)Cc1ccncc1`, the cytotoxicity call was “inactive”.

Regarding `C[C@@H]1CN([C@H](C)CO)C(=O)c2cccc(NS(=O)(=O)c3cn(C)cn3)c2O[C@@H]1CN(C)Cc1ccc(C(=O)Nc2ccccc2N)cc1`, the cytotoxicity call is “inactive”. In the case of `Cc1noc(C)c1NC(=O)Nc1ccc2c(c1)C(=O)N([C@@H](C)CO)C[C@@H](C)[C@H](CN(C)C(=O)Nc1ccc3c(c1)OCO3)OCCCC[C@@H](C)O2`, the cytotoxicity call is “inactive”. As for `C[C@@H]1CN([C@@H](C)CO)C(=O)c2cc(NS(C)(=O)=O)ccc2O[C@@H]1CN(C)S(C)(=O)=O`, the cytotoxicity call is “inactive”.

In the case of `CN1C(=O)c2cc(NS(=O)(=O)c3ccc(F)cc3)ccc2OC[C@H]2O[C@@H](CC(=O)Nc3cccc4ccccc34)CC[C@@H]21`, the cytotoxicity call is “inactive”.

For `CCOCCCNc1nc2c([nH]1)c(=O)n(C)c(=O)n2C`, the cytotoxicity call was “inactive”. Consider `Cc1noc(C)c1S(=O)(=O)N(C)C[C@@H]1Oc2ccc(NC(=O)C3CCCCC3)cc2CC(=O)N([C@@H](C)CO)C[C@@H]1C`, for which the cytotoxicity call was “inactive”. `C[C@@H]1CN([C@@H](C)CO)C(=O)c2cc(C#CC3(O)CCCC3)cnc2O[C@H]1CN(C)C(=O)Cc1cccnc1`: the cytotoxicity call is “inactive”.

On to `C[C@@H]1CN([C@@H](C)CO)C(=O)c2cc(N(C)C)ccc2O[C@@H](C)CCCCO[C@@H]1CN(C)C(=O)Nc1ccc(C(F)(F)F)cc1`, for which the cytotoxicity call was “inactive”. Take `CCCNC(=O)Nc1ccc2c(c1)OC[C@H](C)N(C(=O)C1CCOCC1)C[C@@H](C)[C@@H](OC)CN(C)C2=O`: the cytotoxicity call is “inactive”. Take `C[C@H](CO)N1C[C@H](C)[C@H](CN(C)C(=O)Cc2ccccn2)Oc2cc(-c3ccc(C(=O)N(C)C)cc3)ccc2S1(=O)=O`: the cytotoxicity call was “inactive”.

With `O=C(C[C@H]1CC[C@@H]2[C@H](COC[C@@H](O)CN2C(=O)c2ccccc2F)O1)N1CCN(c2ccccc2)CC1`, the cytotoxicity call is “inactive”. For `C[C@H](CO)N1C[C@H](C)[C@H](CN(C)S(=O)(=O)c2cccs2)Oc2c(NS(=O)(=O)c3ccc(F)cc3)cccc2C1=O`, the cytotoxicity call was “inactive”. The same measure for `CC(NC(CCc1ccccc1)C(=O)O)C(=O)N1Cc2ccccc2CC1C(=O)O` (stereo not given): “inactive”; for `O=C(Nc1ccc(-c2nc3ccc(NC(=O)c4ccc(NC(=O)c5cccc6ccccc56)cc4)cc3[nH]2)cc1)c1ccc(NC(=O)c2cccc3ccccc23)cc1`: “inactive”; for `O=C1CSC(/N=C/c2ccccc2O)=NN1`: “active”.

As to `O=C(C[C@H]1C=C[C@H](NS(=O)(=O)c2ccc(F)cc2)[C@@H](CO)O1)NCCN1CCCCC1`, the cytotoxicity call is “inactive”. As to `Cc1cc(C(=O)Nc2cccc3c2O[C@@H](CN(C)Cc2ccc(C(=O)O)cc2)[C@@H](C)CN([C@H](C)CO)C3=O)n(C)n1`, the cytotoxicity call was “inactive”. `C[C@@H]1CCCCO[C@@H](CN(C)Cc2ccc(C(F)(F)F)cc2)[C@H](C)CN([C@@H](C)CO)C(=O)c2cc(NC(=O)Nc3ccc(F)cc3)ccc2O1`: the cytotoxicity call was “inactive”. As for `O=C(O)c1ccc2ccccc2c1`, the cytotoxicity call is “inactive”. Turning to `Cc1ccc(S(=O)(=O)Nc2ccc3c(c2)C(=O)N([C@@H](C)CO)C[C@@H](C)[C@@H](CN(C)C(=O)NC(C)C)O3)cc1`, the cytotoxicity call was “inactive”.

With `C[C@@H]1CN([C@H](C)CO)C(=O)c2cccc(NS(C)(=O)=O)c2O[C@H]1CN(C)Cc1ccc(C(F)(F)F)cc1`, the cytotoxicity call was “inactive”.
